In all, about 33,000 sequences were measured (“E-score (-0.5 to 0.5)”: median about -0.016, highest 2% from about 0.31 on). The list shows a part of the results.
What follows are sequences tested against Cst6 (UniProt P40535) (assay: PBM E-score (8-mer binding enrichment) (E-score (-0.5 to 0.5)); higher = stronger / more preferred TF binding; most listed sequences are background and not binding sites). Settings: protein concentration: 200 nM; construct: GST-DNA-binding domain.
Outline: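 GST-tagged yeast TFs (full-length or DNA-binding domain) were made by PURExpress in vitro transcription/translation and applied at about 100-200 nM to universal all-10-mer Agilent arrays. The arrays were made double-stranded by primer extension, on fresh or once-stripped slides. Bound protein was detected with fluorescent anti-GST, and scans were normalised with masliner. Each ungapped eight-base word, pooled with its reverse complement, received an E-score (modified Wilcoxon-Mann-Whitney statistic) from the Universal PBM Analysis Suite.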

Sequence | PBM E-score
GATGTATA | 0.143
TCCTGGAA | -0.221
CCCACACC | -0.12
AACTTCTG | 0.0936
CCGCGTAC | 0.0816
ACCGACGC | -0.0568
CCAAGGGA | -0.35
CACGGCGA | 0.21
CCTTCACA | -0.0836
CTGACGGA | 0.165
ACACCAAG | -0.0647
AATCGAGC | 0.0689
GGACACTA | -0.0576
ACACCCAA | -0.0561
AGTATCGA | 0.198
AGGCATTG | -0.0603
CGACAGCG | -0.145
TACGAATA | 0.189
ACAGGACA | 0.0954
CGCACTGA | 0.0585
ACCCGCCG | 0.0323
GCTAAGGA | -0.223
CTAGCGTA | -0.303
AGACTAGC | -0.239
AAGTTGCT | -0.0202

Sequence | PBM E-score
GTACCTAC | -0.224
ACCTGTTA | -0.0507
CTCACCGA | 0.048
ACTTTTGC | 0.165
AGAATGCG | 0.0202
AGCAGCCG | 0.0863
TCAGCCAA | -0.129
ATCTCGCA | 0.257
AAGACTAA | 0.0225
ATGTCACA | 0.375
TGATGGAA | 0.19
AATGTGAG | 0.0831
GTTTAAAA | 0.247
CCTTTGAC | -0.0709
CTCTTGGC | -0.146
CGCGTCAC | 0.418
ATTTCAGG | 0.0994
GCCATTGA | 0.0377
CCAACTTA | 0.0114
GAAGCTGC | -0.117
ATGTTGGC | -0.0418
AAGTGACC | -0.131
CGAAGGCA | -0.0818
AAGGACGT | 0.0462
TATGGGGA | -0.0452

Sequence | PBM E-score
ACATGCCG | 0.209
TAGCGCTA | -0.0968
ATCGGTAC | -0.0036
ATCATAGA | 0.246
CTATCGTC | 0.0875
CTGGCTTC | -0.186
ACGAAAAC | 0.296
AAAGTCGT | -0.0296
AAGCGGCT | 0.267
ATCCCAAC | 0.0418
CAAAACTG | 0.147
CTAGTAAA | 0.221
ACAGGCGA | -0.0976
CGACTGCC | -0.221
ATTAAACG | 0.193
ACAGCTCG | -0.167
GACCTTCA | -0.112
CGTCTGCC | -0.0528
ATTCTTGC | 0.0169
GCTCGGAC | -0.296
ACAGCAAA | 0.0947
CGTGGAAA | 0.261
AGAGCATA | -0.117
CGCAGCAC | 0.03
AATATGGG | -0.119

Sequence | PBM E-score
CTTGCTCA | -0.3
ACATACAT | 0.228
GCCGGAAC | -0.0605
ACATTTCA | 0.134
ATAGTTCA | 0.108
ATAATGCA | 0.144
AATCCCGA | 0.102
ACACCCGG | -0.161
AGTTGCAT | 0.205
AACAGGCA | -0.0324
GTCACCCA | 0.274
CTTACACA | -0.0478
CGTTTAGA | 0.00057
GAGCGCCA | -0.151
GTAGCAAC | -0.0141
CACGTTGG | -0.134
ACGGCGCG | 0.381
ACTCCATA | -0.0837
CGTCGACC | -0.0375
ATAGCCGC | 0.176
CACCGCAG | -0.116
AAGACCAG | -0.283
AACTACGC | 0.0324
GTCCACAC | -0.0192
GATATATC | 0.0563

Sequence | PBM E-score
ACTGAGTA | -0.14
CTGGAATA | 0.101
CAGCGGGA | -0.109
AGAAAATC | 0.233
ACGATTTC | 0.136
AGATCGAT | -0.0484
ACACACCG | -0.141
AGTCTCTG | -0.232
ATCAAGTC | 0.0221
ACCCACAG | -0.111
CGCGAATA | 0.0356
CAGAAATC | 0.0975
CAGACGTC | 0.113
CCGTGAAC | -0.153
CGATTTTA | 0.16
AAGGTTCT | 0.00233
CCTGGTTC | -0.185
CTATGTCC | -0.152
AAGAAAAC | 0.0298
ATATCGAA | 0.18
ATACGGAC | -0.0317
ACGATCTC | -0.189
ATGCTACC | -0.0641
CGCTACAG | -0.168
AAAGCGAT | 0.0977

Sequence | PBM E-score
GGAAAAAA | 0.143
CAAGACGC | -0.0744
ATTCGATA | 0.143
GAGAAAAA | 0.133
CACCAAGG | -0.176
TCCGGTAA | 0.00546
CGTAATGC | 0.365
AATACCTA | 0.071
TCAAGAAA | 0.199
AGAAGCAT | -0.0224
GCCGCAAA | 0.0342
ACCCTAAA | 0.0223
TATTAGAA | 0.224
AGGAAAAA | 0.0949
CCCATGGG | -0.0645
GTATACTA | -0.197
ACCATGGG | -0.264
GCAGGTAC | -0.338
GGTGAGCA | -0.184
CATAGCAA | 0.0986
CTCGTAAG | 0.241
GCATGTAC | 0.00158
CGGCTGAG | -0.127
CTCCCGAG | -0.36
CGAGTGCA | 0.0328

Sequence | PBM E-score
AGCTTATC | -0.0169
GCGGTGGA | -0.106
AGGCGGAT | -0.0368
CCTTACTC | 0.0253
ATTGCGAC | 0.132
CACTTCTC | -0.0949
CTCAGGTA | -0.0602
ACGGCTCC | 0.256
ATTAATAC | 0.272
GAGGCCTC | -0.372
ACAACGAC | 0.0723
CCTAGGCA | -0.14
ACGTTAGC | 0.294
ATGTACTG | -0.0589
CAGTAAAC | 0.049
ACGCAGGC | -0.112
AAGTCCTG | -0.238
TAAGGTGA | 0.22
CGAAGTAG | -0.0702
CTTTACGA | 0.0649
CGGTACCA | -0.256
ATATTAAA | 0.355
AAAAAGGA | 0.00304
TGTTAAAA | 0.211
CCTGAAGC | -0.283

Sequence | PBM E-score
GAACACCC | -0.245
GCGACAGA | -0.0549
TTGTACAA | 0.107
AGGTAAAA | 0.171
GCAGCTGA | -0.0324
AATCTTTG | 0.117
CTACAAAA | 0.214
TGCTCCCA | -0.243
GGGTGCCA | -0.137
CTAGGTCC | -0.233
AGCCACCG | -0.0861
CTAGATAC | 0.0288
AATCGGAG | -0.108
CAAGACAA | 0.0519
AAAACTAT | 0.131
AGTAAAGA | 0.171
AATTTATC | 0.312
ACCTGGAC | -0.373
GAAAGGCC | 0.0943
GGGAACCA | -0.157
GGGGACTA | -0.369
CTGGTACA | -0.0868
CAAAACAG | 0.0442
ATAGCAGA | 0.0549
AAGCCGCA | 0.245

Sequence | PBM E-score
AGCCAAGC | -0.294
GCTCTCAA | -0.057
GATTCCCC | -0.24
AACTGTTG | -0.138
GAAGTCGA | 0.0342
ATGGTTTG | -0.0135
AGCCGTCC | 0.0267
ACATCCAC | 0.141
AAAAATAG | 0.118
AATGGTAC | -0.0975
GGTGCTGA | -0.228
GAGTGTTA | 0.071
ACTTTGAT | 0.188
AAAGTACA | 0.208
CAACCTTC | -0.0925
AGTAAGCA | -0.013
GCTTTTCC | -0.14
TCTCGCAA | -0.112
GAGCATCA | -0.00777
TCTGATCA | -0.00903
GAGGGCTA | -0.27
AGCTCCTA | -0.364
CTATGCGC | -0.00647
CTTGTAGC | 0.0259
ACGCGGAC | -0.0478

Sequence | PBM E-score
GCTGGTAC | -0.221
CCACGCCA | -0.00586
GTCGTAGA | 0.0253
AGCCCCCT | -0.303
CATCCAGA | -0.102
CCACACAA | -0.0352
CGTGGTGA | 0.03
ACTAGCAA | 0.0267
CGGCGCGA | 0.35
AGCCCACT | -0.227
ACCCGATA | -0.138
ACCGGATG | -0.0495
AGGATGAT | 0.245
CGACGCGA | -0.0414
GGCATCCC | -0.269
GGCTCAGA | -0.0954
CCGGGTCG | -0.229
CGGCAAGA | -0.013
ACGGTGCT | -0.0965
GGCACTAA | 0.133
CATCATAG | 0.326
CCTACCAC | -0.258
ATAGCGGG | -0.176
GGACACAA | 0.173
CAGTCGCG | -0.25

Sequence | PBM E-score
CACGTTTC | -0.0321
ATCACTGG | 0.00911
ATGCTCAA | -0.0103
ATCTTGCG | 0.0154
ACGCAGTA | 0.026
GGATGTCA | 0.277
CTCTGCTA | -0.0841
CCGTGAGA | -0.235
GGAGAGAC | -0.228
AGCTTGTA | -0.00081
ACTTAGAC | 0.136
GCCCTACA | -0.228
ATAAAGAT | 0.192
ACTTAAAT | 0.0864
ACTGTAAG | 0.0881
TATAGTGA | 0.176
TCGTAGCA | 0.112
GTGTTAAC | 0.00586
CGCCCACC | -0.0447
ACTTAGTC | -0.112
TCTAGCAA | 0.0361
CGTCCTTC | -0.0877
AGAAAGGC | 0.105
CGTATAGA | 0.146
GCATCTAA | 0.134

Sequence | PBM E-score
CACGGAAC | 0.118
ATTCCGAA | 0.128
CCCTATCG | -0.285
ATGGGAAC | -0.143
AAGAAAAT | 0.272
CAGGTACG | -0.219
CGCAATCA | 0.191
CTATAAGC | -0.0678
GAGACATC | -0.254
GACTACTA | 0.0595
CATGCGGG | -0.0735
CAAGCGTC | 0.0922
AGGCGGGA | -0.24
ATGGCTAC | 0.0569
GCCTGCGC | -0.223
ACACCGGA | -0.201
GACGTAAA | 0.374
GTAACCAA | 0.00921
ACTTTCAA | 0.0592
GATAAGAC | -0.0263
CAGTGAAC | 0.0872
GCGCGGAA | 0.0874
CAGGTGTA | 0.0748
GCTGCGTA | -0.0643
GTCCAATA | -0.112

Sequence | PBM E-score
GAAGGGCC | -0.173
GAGACGCA | -0.00906
TCAAGCAA | -0.0619
AGCCGACG | -0.112
CTTCGGGA | -0.199
CCGCGTGA | 0.197
CGAGATCA | 0.00206
CCACTCCA | -0.161
CATTGCCA | 0.065
ACTTCGTG | -0.0493
CGAAAATC | 0.236
TATCGTCA | 0.397
ACGCGGCT | 0.248
AGCTACAT | 0.0188
AGTACCTG | -0.121
CCATTCTA | -0.0992
CGAACGAC | -0.0211
CCTGACAA | -0.00807
TACGGCAA | 0.221
AGGCTGTC | -0.242
CCAGGGTC | -0.294
GATCCGCA | -0.109
CCCGCATC | -0.0893
ATTCCAGG | -0.0925
AACCCCAA | -0.0731

Sequence | PBM E-score
ACCTGTAC | -0.049
AGACCTCG | -0.0278
CCCGTCCA | -0.184
GATAAGTA | 0.0146
CCATAGTC | -0.16
GAATGGTC | -0.253
ACAATGGT | -0.0312
AAGCGATT | -0.00953
CAAGCTAA | -0.17
ACGCCAGA | -0.121
AGACTCCG | -0.0542
CGATTGAC | 0.171
ATACGGGA | -0.105
ACCCGACA | -0.114
CCTATATA | 0.0362
CAACTTCG | 0.0207
CTTCCTGA | 0.112
AGCGTCCA | -0.159
AATATTTG | 0.241
